Data from the supplement of paper PMC9446081.
Screen size: about 39,000 compounds; about 220 (0.56%) showed activity. The list shows a part of the results.

system: Escherichia coli K-12 BW25113; experiment: relative growth (OD600 normalised to plate interquartile mean) (fraction); higher = less growth inhibition, active = 0.2 or less; conditions: 50 µM; LB; incubation time: overnight (16-24 h)
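Also: static incubation at 37 °C against the wild-type strain, values averaged over two biological replicates.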

Row | Compound | relative growth
1 | Cc1ccc(-c2nc(-c3ccc(Cl)cc3)cs2)cc1F | inactive: 0.955
2 | CO[C@@H]1CN(C)C(=O)c2ccc(NC(=O)Nc3ccccc3)cc2OC[C@H](C)N(C(=O)CN(C)C)C[C@@H]1C | inactive: 0.995
3 | O=C(C[C@@H]1C=C[C@H](NC(=O)CN2CCOCC2)[C@@H](CO)O1)NC1CCCCC1 | inactive: 0.932
4 | C[C@H](CO)N1C[C@H](C)[C@@H](CN(C)S(=O)(=O)c2ccc(F)cc2)Oc2c(NC(=O)Nc3ccc(C(F)(F)F)cc3)cccc2C1=O | inactive: 0.767
5 | C[C@@H]1CN([C@H](C)CO)C(=O)Cc2cc(NC(=O)C3CC3)ccc2O[C@H]1CN(C)S(=O)(=O)c1cn(C)cn1 | inactive: 0.948
6 | C[C@H](CO)N1C[C@H](C)[C@H](CN(C)S(=O)(=O)c2cccs2)Oc2ccc(NC(=O)c3ccncc3)cc2C1=O | inactive: 0.99
7 | C[C@@H]1CN([C@H](C)CO)C(=O)c2cccc(NC(=O)NC3CCCCC3)c2O[C@@H]1CN(C)Cc1ccc(C(F)(F)F)cc1 | inactive: 0.942
8 | Cc1noc(C)c1NC(=O)N(C)C[C@@H]1OCCCC[C@@H](C)Oc2ccc(NC(=O)c3ccccc3)cc2C(=O)N([C@H](C)CO)C[C@H]1C | inactive: 0.958
9 | CNC[C@H]1OCCCC[C@H](C)Oc2ccc(NC(=O)c3ccncc3)cc2C(=O)N([C@@H](C)CO)C[C@@H]1C | inactive: 0.973
10 | C[C@@H]1CN([C@@H](C)CO)C(=O)c2cccc(NC(=O)Nc3ccc(C(F)(F)F)cc3)c2O[C@H]1CN(C)Cc1ccccc1 | inactive: 0.824
11 | C[C@H](CO)N1C[C@H](C)[C@@H](CN(C)C(=O)Nc2ccc(C(F)(F)F)cc2)Oc2ccc(NC(=O)Cc3ccccc3)cc2C1=O | inactive: 0.977
12 | C[C@H]1CN([C@@H](C)CO)C(=O)c2cccc(NC(=O)c3nc4ccccc4s3)c2O[C@@H]1CN(C)Cc1ccc(-c2ccccc2)cc1 | inactive: 1.04
13 | CC(C)NC(=O)Nc1ccc2c(c1)C(=O)N([C@@H](C)CO)C[C@@H](C)[C@H](CN(C)Cc1ccc(Cl)c(Cl)c1)OCCCC[C@@H](C)O2 | inactive: 0.953
14 | C[C@@H]1CN([C@@H](C)CO)C(=O)c2cc(NC(=O)Nc3cccc4ccccc34)ccc2O[C@H]1CN(C)Cc1ccc(-c2ccccc2)cc1 | inactive: 1
15 | C[C@H](CO)N1C[C@H](C)[C@H](CN(C)C(=O)Nc2cccc(C(F)(F)F)c2)OCc2cnnn2CCCC1=O | inactive: 0.983
16 | CC1=C(C(=O)O)N2C(=O)[C@@H](NC(=O)[C@H](N)c3ccccc3)[C@H]2SC1 | inactive: 1.03
